For 84 variants, self-cleavage results are on record in the RNAGym collection of RNA variant scans (doi:10.7554/elife.90254).

The source gives no read counts; variants with many changes may rest on few reads.

B1: OR4K15 (parent)
chain: GUUAACGGUCAUAGGCCAUGGAAACUAGGAGCACCAUUUCGCUGCCAGUGAAGAAAUGAACAAAGAAAAUCUGGGCCAGGCAGGCAUCAAAAGAAAUAGUCUUGCGCUCAACCAGAAAGUCUGUAAUCAUUUUAAGGGUA

In this data set the parent is B1. The data set is described as follows: self-cleavage, relative activity (ratio to wild type); higher = more cleavage; in vitro, sequencing; the parent is a self-cleaving ribozyme.
Consider U19C A55G U139C, for which the self-cleavage was determined as 1.41. The value for A18G A62G A63G G119A U139C was 1.76. Under A18G A98G A118G stands 0.3. Under A18G U39C U87C A116G stands 0.69; under A18U U38C G58C A69G A91G, 0.61. Take U19C A54G A82G U100C U108C: the self-cleavage came to 0.02. The value for A18G U37C C45U A67G was 1.16; that for U19C A27G A78G was 0.22; that for U19C A22G C45U G50U A55G U108C was 0.05.

Regarding U19A U43A U87C U103C, the self-cleavage amounted to 0.1. Under A18U U43C A52G A55G A90G stands 0.28. A18U U43C A82U A116U U122C U139C: the self-cleavage amounted to 0.04. The value for A18U U37C A51G U57C A67G C105G A118G was 0; that for U19C A52G U97A A116U A134G was 0.26. Take U19A A59U U108C: the self-cleavage was determined as 0.03. The value for U19A A96G U103G U124A was 0.01; that for A18G U19A A36G was 1.07. Turning to A18U A66G U130C, the self-cleavage turned out to be 0.78.

Turning to A18G A62G A110G, the self-cleavage was 0.09. As for A18U A68G A96G U103C, the self-cleavage was 0.24. Under U19C A24G A27U A60G stands 1.54; under A18G C88U U127C, 0.88. Take A18G U103C A117G: the self-cleavage came out at 0.6.

As for A18G G29A A63G U122C A125U, the self-cleavage came out at 0.83. Under A18G U37C A86G A134U stands 1.5; under U19C A22U U43C U108C, 0.07; under U19A A47U A62C, 0.79. In the case of A18U A54G A78G C112U, the self-cleavage amounted to 0. Under A18U A27G U87C C112U U132C stands 0.01; under A18G U39C G41A A90G, 0.48; under A18G U19C A96U A111G, 0.06. Under A18G A54G U108A stands 0.03; under A18G A60G U102A A114G, 0.45.

Take U19A U39A A91G A116G: the self-cleavage was determined as 1.06.

Consider U19A U37C A68G A116G U130C, for which the self-cleavage was 0.26.

Regarding U19C A55G A64G A91G U102C U108C U127C, the self-cleavage stood at 0. Under U19A U43C A52G A55G stands 0.35. Under U19C A59G A92G stands 1.42; under A18U A30U A68G A95G G106A, 0.01; under A18G U57C A59G A111G, 0.02. In the case of A18G A30U G79A, the self-cleavage amounted to 0.13.

As for U19A U49A U87A U124C, the self-cleavage was 0.9. Regarding U19C A22G U130C, the self-cleavage is 1.09. Regarding U19A A63G A78G U87C A94G A98U, the self-cleavage was determined as 0.24. In the case of A18U U49C A90U, the self-cleavage was found to be 1.36. Under U19C A30U A47U A62G A96G U122C stands 0.26. Under A18G U49C A64G U108C stands 0.02; under A18G A59U A68G A90G A116G, 0.35. A18G C34U A55G A118G: the self-cleavage was 0.97. The value for A18G A110G A118G was 0.23; that for U19A U49C A67G A94G was 1.18. Under A18G G20A A23G C77U A95G stands 1.55; under U19A U39C A86G U122C, 0.63. Under U19A U49A A54G G84A stands 1.79. Regarding A18U U43A A92G A114U A116G A129G, the self-cleavage came out at 0. Under A18U G41A U43C A114G U122C stands 0.04; under A18G G31C A55G U97C A118U, 0.56; under A18U A30U A69G U72C A90G, 0.15. Under A18G C35U A66G stands 0.98. On to U19C A55G A68G U72A A94G A96G A110G A118U, for which the self-cleavage amounted to 0.02. U19C A52U A60G U87C U122A: the self-cleavage is 0.27.

Consider U19C A27G A52G A91G U108A, for which the self-cleavage was 0. Take A18G A54G A134G: the self-cleavage amounted to 1.59. The value for A18U A60G A82G G137A was 0.12.

On to A18U A33G U131C, for which the self-cleavage came out at 0.71. Turning to A18G A82U U108C, the self-cleavage was determined as 0.03. The value for U19C A62U A67U was 1.81; that for U19A A52C U72C A125G A140U was 0.09; that for U19A C45A A68G A126G was 1.21. Take A18G A66G A78G A86G A91G: the self-cleavage was 0.07. The value for A18U A92G U103C was 0.47; that for U19C A22U A64G was 0.86; that for A18G A33G A56G A67G U100C G119C was 1.49. As for U19C A27G A98G A129U, the self-cleavage came to 0.17. Under A18G G50A A117U C121U stands 0.86; under U19C A54G A62G U70C, 0.42. The value for U19A A66U A92G was 1.45; that for U19C A47G A94G A114U was 0.06. The value for A18G U19C U37C G79U A116U was 0.06; that for A18G A64G U97C was 0.55. As to U19A A33G A95G U133C, the self-cleavage stood at 1.34. The value for U19C A47U A67U A89G was 0.89; that for U19C A62G A90G G137A was 0.42; that for U19C A22G A90C was 0.63.
